Test results as given in paper PMC4336329 (PLoS ONE, 2015).
Hit rate of the full screen: of about 310,000 compounds, about 14,000 (4.5%) showed an effect of 50% or more. Effects have a minus sign here. Some of the results follow.

biological target: human ether-à-go-go-related gene (hERG) potassium channel (human, UniProt Q12809); assay: primary screen, population patch clamp on CHO cells stably expressing hERG
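Further: peak tail current of the secondary pulse compared with the same well before compound.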

human ether-à-go-go-related gene (hERG) potassium channel, sequence (Q12809 whole entry, looked up): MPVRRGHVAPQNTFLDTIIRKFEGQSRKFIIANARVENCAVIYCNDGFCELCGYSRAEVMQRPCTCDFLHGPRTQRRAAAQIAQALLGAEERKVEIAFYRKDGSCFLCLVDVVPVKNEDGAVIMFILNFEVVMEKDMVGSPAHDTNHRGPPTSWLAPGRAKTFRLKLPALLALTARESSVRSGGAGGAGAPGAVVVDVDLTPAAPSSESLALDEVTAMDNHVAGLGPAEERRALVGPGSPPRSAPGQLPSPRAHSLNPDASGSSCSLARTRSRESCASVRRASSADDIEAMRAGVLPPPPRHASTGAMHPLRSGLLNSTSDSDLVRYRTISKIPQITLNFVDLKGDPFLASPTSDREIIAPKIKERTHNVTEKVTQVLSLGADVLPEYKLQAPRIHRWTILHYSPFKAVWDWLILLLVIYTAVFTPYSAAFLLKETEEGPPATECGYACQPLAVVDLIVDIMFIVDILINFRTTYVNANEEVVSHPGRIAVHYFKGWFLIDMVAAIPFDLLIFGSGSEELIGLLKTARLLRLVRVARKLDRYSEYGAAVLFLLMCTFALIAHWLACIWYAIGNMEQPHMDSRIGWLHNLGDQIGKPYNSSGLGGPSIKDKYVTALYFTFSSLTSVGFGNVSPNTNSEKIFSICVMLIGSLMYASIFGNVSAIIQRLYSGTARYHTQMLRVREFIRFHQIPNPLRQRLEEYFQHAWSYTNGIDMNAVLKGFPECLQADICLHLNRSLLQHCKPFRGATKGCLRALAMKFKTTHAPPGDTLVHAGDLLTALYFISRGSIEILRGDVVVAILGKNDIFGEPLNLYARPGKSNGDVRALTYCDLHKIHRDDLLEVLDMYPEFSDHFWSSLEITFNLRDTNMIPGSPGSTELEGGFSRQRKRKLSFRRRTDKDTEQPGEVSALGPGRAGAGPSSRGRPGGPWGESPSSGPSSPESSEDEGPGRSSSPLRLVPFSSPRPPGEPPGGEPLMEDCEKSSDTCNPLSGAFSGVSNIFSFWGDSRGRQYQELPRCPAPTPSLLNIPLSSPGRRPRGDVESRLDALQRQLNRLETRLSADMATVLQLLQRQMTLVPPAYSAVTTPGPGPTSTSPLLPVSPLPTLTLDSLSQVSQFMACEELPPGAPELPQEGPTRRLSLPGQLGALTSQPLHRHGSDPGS

Row | Compound | hERG current change (%, negative = inhibition) at 10uM
1 | O=C(NCCc1ccccc1)c1ccc(=O)[nH]c1 | 6.89%
2 | O=C(NCCCNc1ccc([N+](=O)[O-])cc1Cl)c1ccccc1F | -4.03%
3 | COc1ccc(Cn2c(=O)[nH]c3cc(C(=O)NCCCN4CCCCCC4)ccc3c2=O)cc1 | -8.74%
4 | Nc1ncnc2c1nc(Sc1ccc(Cl)cc1)n2[C@@H]1O[C@@H]2COP(=O)([O-])O[C@H]2[C@H]1O.[Na+] | 1.79%
5 | COc1cccc(C(=O)Nc2cc(NC(=O)c3cccs3)ccc2C)c1 | 0.446%
6 | CCC(C)(C)n1nnnc1CN1CCC(n2c(C)nc3cc(C(F)(F)F)ccc32)CC1 | -5.5%
7 | CC1(C)CC(=O)C(C=NCCN2CCN(C(=O)c3ccc(F)cc3)CC2)=C(O)C1 | -21.1%
8 | O=C(Nc1ccc(C(=O)N2CCN(c3ccc(Cl)cc3)CC2)cc1)C1=CSCCO1 | -18.7%
9 | COc1cc2ccccc2cc1C(=O)N1CC(C)CC(C)C1 (stereo not drawn) | -15.4%
10 | O=C(NC12CC3CC(CC(C3)C1)C2)c1cc(F)c(F)c(F)c1F | 21.1%
11 | Cc1ccc(S(=O)(=O)N2CCCC2)cc1C(=O)NCCOc1ccccc1 | -5.81%
12 | Cc1ccc(-c2noc(COc3ccccc3C)n2)cc1 | 16.1%
13 | COC(=O)C(Cc1c[nH]c2ccccc12)NC(=O)c1cccs1 (stereo not drawn) | 0.0385%
14 | CC(Oc1ccccc1)C(=O)Nc1nnc(S(=O)(=O)N2CCCCC2)s1 (stereo not drawn) | 5.81%
15 | O=C(CSc1ccccn1)Nc1ccc(F)c([N+](=O)[O-])c1 | -5.31%
16 | CN(C(=O)COc1ccc(Cl)cc1Cl)c1nnc(C23CC4CC(CC(C4)C2)C3)s1 | 18.8%
17 | Cc1[nH]c2ccccc2c1CCNS(=O)(=O)c1ccc(S(N)(=O)=O)cc1 | 7.53%
18 | Cc1cccc(C(=O)OCC(=O)N2CCCC2=O)c1O | -16.1%
19 | COc1ccc(CN2CCN(CCc3ccccc3)C(CCO)C2)c(Cl)c1OC (stereo not drawn) | -60.1%
20 | CCOC(=O)c1c(-c2ccccc2)nc2ccccn12 | 0.959%
21 | COc1ccc(CCNC(=S)NC(=O)c2ccccc2)cc1C | 19.8%

Row | Compound | hERG current change (%, negative = inhibition) at 10uM
22 | N#CCCCSC1=C(C#N)C(c2ccccc2Cl)CC(=O)N1 (stereo not drawn) | -16.6%
23 | CCN(CC)C(=O)c1[nH]cnc1C(=O)N[C@@H](CCCCNC(=O)OC(C)(C)C)C(=O)OC(C)(C)C | 11.1%
24 | CCc1ccc(N(C(=O)c2csnn2)C(C(=O)NC2CCCCC2)c2cccnc2)cc1 (stereo not drawn) | -4.34%
25 | CCOc1cccc2c1OC1(C)CC2NC(=O)N1c1cccc(Cl)c1 (stereo not drawn) | 1.64%
26 | O=C(COC(=O)c1nc(Cl)ccc1Cl)Nc1ccc(Cl)cc1 | -7.78%
27 | O=C1COc2ccc(S(=O)(=O)N3CCN(c4ccccc4F)CC3)cc2N1 | 10.2%
28 | COC(=O)c1cccc(NC(=S)Nc2cccc(Cl)c2C)c1 | 13.9%
29 | COc1ccc(N2CCN(S(=O)(=O)c3ccc(Br)s3)CC2)cc1 | -4.01%
30 | Cc1oc(-c2cccc(Cl)c2)nc1CS(=O)(=O)CC(=O)NC1CCCC1 | 6.45%
31 | O=C(c1ccco1)N1CCN(Cc2nc3cc(Cl)ccc3c(=O)[nH]2)CC1 | -61.8%
32 | COc1cc(C(=O)Nc2cccc(S(=O)(=O)N3CCCC3)c2)c([N+](=O)[O-])cc1OC | -5.39%
33 | COc1cccc(N2CCN(C(=O)c3cc4ccc(OC)cc4[nH]3)CC2)c1 | 6.27%
34 | C[C@@]12CC(=O)NC1N(C(=O)c1cccc(C(F)(F)F)c1)C(c1ccccc1O)C2 (stereo partly drawn) | 12.1%
35 | CN1C[C@@H]2C[C@@H](c3cccn3-c3ccccn3)N3CCC[C@@]23C1=O | -43.6%
36 | Cc1ccccc1CN1CCNC(=O)C1CC(=O)NCCC1=CCCCC1 (stereo not drawn) | 2.78%
37 | O=C(NCc1cccc(C(F)(F)F)c1)C1CCCN(c2ncccn2)C1 (stereo not drawn) | -37.1%
38 | CC(C(=O)Nc1ccc(N(C)C)cc1)N1C(=O)c2ccccc2S1(=O)=O (stereo not drawn) | 15.3%
39 | CCOC(=O)Cc1csc(NC(=O)CSc2nnc(-n3nc(C)cc3C)c3ccccc23)n1 | -49.7%
40 | COc1ccc(NC(=O)COC(=O)c2ccc3c(c2)OCCO3)cc1OC | 15.9%
41 | COc1ccc(/C=N/NC(=O)c2cccnc2)cc1CSc1nc2ccccc2s1 | -4.2%
42 | CC(C)Cn1cnc2c(c1=N)C(c1ccccc1)C1=C(CC(C)(C)CC1=O)O2 (stereo not drawn) | -38.8%
